Reference: patent US20250243254A1 (CUE BIOPHARMA, published 2025)
One block for each binder: values may come before it.

Legend:
human IL-2Rα-Fc = target: T1, human IL-2Rα-Fc (human, UniProt P01589 22-240, limits assumed); assay: BLI (Octet Red96e), human IL-2Rα-Fc captured on AHC biosensors, global 1:1 fit, average of triplicate experiments
T1 construct: Receptor-Fc immobilised on AHC biosensors; also called IL-2Rα subunit; CD25; not shown: Fc part (captured by anti-human IgG Fc biosensors)
T1 sequence: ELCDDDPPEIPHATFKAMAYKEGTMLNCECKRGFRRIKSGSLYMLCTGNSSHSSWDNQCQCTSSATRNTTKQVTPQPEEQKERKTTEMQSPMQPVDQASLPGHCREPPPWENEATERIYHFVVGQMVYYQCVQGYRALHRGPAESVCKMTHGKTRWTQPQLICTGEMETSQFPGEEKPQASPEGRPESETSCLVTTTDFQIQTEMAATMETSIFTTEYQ
Protocol: (§1) Kinetic measurements were performed using bio-layer interferometry on ForteBio's Octet Red96e using anti-Human IgG Fc capture (AHC) for human IL-2R. All experiments were performed at 30° C. with the orbital shake speed of 1000 rpm. Samples were diluted in assay buffer of 25 mM HEPES, pH 6.8, 50 mM KCl, 5% polyethylene glycol (PEG) 6000, 0.1% bovine serum albumin (BSA), 0.02% Tween20 in a 96-well non-binding black plate (Greiner 655900).
(§2) All proteins were diluted in assay buffer containing 25 mM HEPES, pH 6.8, 50 mM KCl, 5% PEG 6000, 0.1% BSA, 0.02% Tween20. The receptor ligands were prepared to a final concentration of 20 nM for IL-2Rα-Fc, and 25 nM for IL-2Rβ-Fc, and dispensed into a column of a 96-well non-binding plate at a volume of 200 μl/well. […] The analytes were added to the 96-well plate at 200 μl/well. Kinetic measurements were made with appropriate concentration ranges depending on signal and robustness of fit.
(§3) Raw data was processed and analyzed with ForteBio's Data Analysis 11.0 software. For each run the varying analyte concentrations were subtracted from their corresponding reference well to compensate for any background drift. The sensorgrams Y-axis were aligned to the baseline for a common reference point, and the inter-step correction was aligned to dissociation to correct for any misalignments between the association and dissociation steps. The sensorgrams were processed with a Savitzky-Golay Filtering to remove any high-frequency noise from the curves. The processed curves were globally fit to a 1:1 binding model [Hahnefeld et al. (2004) Methods in Molecular Medicine 94:299]. […] This may be due to low signal amplitude to noise. […] Rat IL-2Rα-his binding experiments were performed in duplicate.

human IL-2Rβ-Fc = target: T2, human IL-2Rβ-Fc (human, UniProt P14784 28-240, limits assumed); assay: BLI (Octet Red96e), human IL-2Rβ-Fc captured on AHC biosensors, global 1:1 fit, average of triplicate experiments
T2 construct: Receptor-Fc immobilised on AHC biosensors; also called IL-2Rβ subunit; CD122; not shown: Fc part (captured by anti-human IgG Fc biosensors)
T2 sequence: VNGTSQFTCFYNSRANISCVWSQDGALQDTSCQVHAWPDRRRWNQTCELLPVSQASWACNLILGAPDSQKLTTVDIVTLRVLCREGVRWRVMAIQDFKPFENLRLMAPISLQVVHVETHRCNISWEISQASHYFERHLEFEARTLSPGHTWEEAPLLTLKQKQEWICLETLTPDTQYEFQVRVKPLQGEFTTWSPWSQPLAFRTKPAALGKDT
Protocol: as §1, §2, §3

- Kd (human IL-2Rα-Fc): 10.7 nM
- koff (human IL-2Rα-Fc): 0.0058 s⁻¹
- kon (human IL-2Rα-Fc): 550000 M⁻¹ s⁻¹
- Kd (human IL-2Rβ-Fc): 197 nM
- koff (human IL-2Rβ-Fc): 0.12 s⁻¹
- kon (human IL-2Rβ-Fc): 590000 M⁻¹ s⁻¹
B1: CUE-1646 (WT IL-2-FLAG) (ligand)
chain: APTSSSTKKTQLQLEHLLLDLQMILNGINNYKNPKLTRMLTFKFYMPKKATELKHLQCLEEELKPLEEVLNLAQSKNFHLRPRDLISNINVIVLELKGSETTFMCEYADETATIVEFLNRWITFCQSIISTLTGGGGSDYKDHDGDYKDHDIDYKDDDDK
notes: also called WT IL-2 construct

- Kd (human IL-2Rα-Fc): 1180 nM
- koff (human IL-2Rα-Fc): 0.524 s⁻¹
- kon (human IL-2Rα-Fc): 310000 M⁻¹ s⁻¹
- Kd (human IL-2Rβ-Fc): 613 nM
- koff (human IL-2Rβ-Fc): 0.44 s⁻¹
- kon (human IL-2Rβ-Fc): 710000 M⁻¹ s⁻¹
B2: CUE-1647 (H16A; F42A mutant IL-2-FLAG) (ligand)
chain: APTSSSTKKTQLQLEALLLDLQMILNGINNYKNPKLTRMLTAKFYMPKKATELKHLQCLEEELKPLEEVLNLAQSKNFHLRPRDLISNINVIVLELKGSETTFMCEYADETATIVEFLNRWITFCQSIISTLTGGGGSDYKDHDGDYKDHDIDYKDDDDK
notes: also called double mutant; mutant IL-2 construct
